The text below walks through data of PMC12820563, “FoxP3 forms a head-to-head dimer in vivo and stabilizes its multimerization on adjacent microsatellites”.

The other results are listed elsewhere or left out.

In this test the target is T1, MBP-FoxP1dN (Mus musculus, UniProt P58462 326-579).
T1 sequence: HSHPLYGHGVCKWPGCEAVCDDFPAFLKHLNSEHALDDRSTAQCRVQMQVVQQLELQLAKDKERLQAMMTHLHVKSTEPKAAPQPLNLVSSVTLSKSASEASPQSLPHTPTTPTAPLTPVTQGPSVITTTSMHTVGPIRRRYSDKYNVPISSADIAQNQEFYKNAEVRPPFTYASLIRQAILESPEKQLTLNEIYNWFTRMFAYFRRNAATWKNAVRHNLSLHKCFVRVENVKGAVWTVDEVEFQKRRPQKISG
Description: PD-seq (MBP pull-down with sequencing); 20 mM Tris-HCl pH 7.5, 100 mM NaCl, 1.5 mM MgCl2, 0.4 uM protein, 0.1 uM dsDNA library, 30 min, room temperature, amylose pull-down; high values mean tight binding. To be noted: protein: recombinant; tags: His6-MBP; chain copies: 2; dsDNA, one strand shown. An outline of the steps:
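Binding is given as reads-per-million enrichment, pull-down over input, with replicates pooled. The bait was an N-terminus-lacking mouse FoxP3 or FoxP1 fragment with a His6-MBP tag, expressed in E. coli and used at 0.4 µM with 0.1 µM Klenow-filled degenerate double-stranded DNA library for 30 min at room temperature in Tris pH 7.5 buffer with NaCl and MgCl2. Amylose resin pull-down with three washes was followed by proteinase K release, PCR barcoding and Illumina sequencing.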
Take “GATGATTGTTCTCCCAGCTGATGAATTAGAATCATCGAGTAAACAAATTTTCCTAATCTTTCTGTTCAAGCGCCATCTAC”: the binding signal is 1.05 RPM ratio (pull-down/input).
The value for “GATGATTGTTCTCCCAGCTGATGAATTTGCCACGTCGAGTAAACAAATTTTCCTAATCTTTCTGTTCAAGCGCCATCTAC” was 0.932 RPM ratio (pull-down/input).
Take “GATGATTGTTCTCCCAGCTGATGAATTTGTTGACTCGAGTAAACAAATTTTCCTAATCTTTCTGTTCAAGCGCCATCTAC”: the binding signal was 2.35 RPM ratio (pull-down/input).
The figure for “GATGATTGTTCTCCCAGCTGATGAATTACACGGATCGAGTAAACAAATTTTCCTAATCTTTCTGTTCAAGCGCCATCTAC” is 0.998 RPM ratio (pull-down/input); for “GATGATTGTTCTCCCAGCTGATGAATTCGATGTCTCGAGTAAACAAATTTTCCTAATCTTTCTGTTCAAGCGCCATCTAC” it is 0.94 RPM ratio (pull-down/input); for “GATGATTGTTCTCCCAGCTGATGAATTCTGCGATTCGAGTAAACAAATTTTCCTAATCTTTCTGTTCAAGCGCCATCTAC” it is 0.856 RPM ratio (pull-down/input).
The figure for “GATGATTGTTCTCCCAGCTGATGAATTGGCGCAATCGAGTAAACAAATTTTCCTAATCTTTCTGTTCAAGCGCCATCTAC” is 1.2 RPM ratio (pull-down/input); for “GATGATTGTTCTCCCAGCTGATGAATTGTGATCCTCGAGTAAACAAATTTTCCTAATCTTTCTGTTCAAGCGCCATCTAC” it is 1.12 RPM ratio (pull-down/input).
The value for “GATGATTGTTCTCCCAGCTGATGAATTATATCAGTCGAGTAAACAAATTTTCCTAATCTTTCTGTTCAAGCGCCATCTAC” was 0.952 RPM ratio (pull-down/input); that for “GATGATTGTTCTCCCAGCTGATGAATTATTGGAATCGAGTAAACAAATTTTCCTAATCTTTCTGTTCAAGCGCCATCTAC” was 1.05 RPM ratio (pull-down/input).
“GATGATTGTTCTCCCAGCTGATGAATTGGATCCGTCGAGTAAACAAATTTTCCTAATCTTTCTGTTCAAGCGCCATCTAC”: the binding signal was 0.821 RPM ratio (pull-down/input).
The value for “GATGATTGTTCTCCCAGCTGATGAATTGCTCTAGTCGAGTAAACAAATTTTCCTAATCTTTCTGTTCAAGCGCCATCTAC” was 0.974 RPM ratio (pull-down/input); that for “GATGATTGTTCTCCCAGCTGATGAATTGCTAAACTCGAGTAAACAAATTTTCCTAATCTTTCTGTTCAAGCGCCATCTAC” was 1.11 RPM ratio (pull-down/input); that for “GATGATTGTTCTCCCAGCTGATGAATTTGACCGGTCGAGTAAACAAATTTTCCTAATCTTTCTGTTCAAGCGCCATCTAC” was 0.726 RPM ratio (pull-down/input).
“GATGATTGTTCTCCCAGCTGATGAATTACTGCAGTCGAGTAAACAAATTTTCCTAATCTTTCTGTTCAAGCGCCATCTAC”: the binding signal was 1 RPM ratio (pull-down/input).
The value for “GATGATTGTTCTCCCAGCTGATGAATTTGTTGCTTCGAGTAAACAAATTTTCCTAATCTTTCTGTTCAAGCGCCATCTAC” was 1.54 RPM ratio (pull-down/input); that for “GATGATTGTTCTCCCAGCTGATGAATTACTCTAATCGAGTAAACAAATTTTCCTAATCTTTCTGTTCAAGCGCCATCTAC” was 1.17 RPM ratio (pull-down/input); that for “GATGATTGTTCTCCCAGCTGATGAATTGGCCAATTCGAGTAAACAAATTTTCCTAATCTTTCTGTTCAAGCGCCATCTAC” was 0.88 RPM ratio (pull-down/input).
For the sequence “GATGATTGTTCTCCCAGCTGATGAATTTTGATGGTCGAGTAAACAAATTTTCCTAATCTTTCTGTTCAAGCGCCATCTAC”, the binding signal was 1.04 RPM ratio (pull-down/input).
The figure for “GATGATTGTTCTCCCAGCTGATGAATTTATCTTCTCGAGTAAACAAATTTTCCTAATCTTTCTGTTCAAGCGCCATCTAC” is 1.08 RPM ratio (pull-down/input); for “GATGATTGTTCTCCCAGCTGATGAATTACATGTATCGAGTAAACAAATTTTCCTAATCTTTCTGTTCAAGCGCCATCTAC” it is 1.41 RPM ratio (pull-down/input); for “GATGATTGTTCTCCCAGCTGATGAATTGAATTAGTCGAGTAAACAAATTTTCCTAATCTTTCTGTTCAAGCGCCATCTAC” it is 0.836 RPM ratio (pull-down/input).
As to “GATGATTGTTCTCCCAGCTGATGAATTGGACGACTCGAGTAAACAAATTTTCCTAATCTTTCTGTTCAAGCGCCATCTAC”, the binding signal was 0.788 RPM ratio (pull-down/input).
As for “GATGATTGTTCTCCCAGCTGATGAATTCGGTATATCGAGTAAACAAATTTTCCTAATCTTTCTGTTCAAGCGCCATCTAC”, the binding signal was 1.09 RPM ratio (pull-down/input).
The value for “GATGATTGTTCTCCCAGCTGATGAATTAGGTGAATCGAGTAAACAAATTTTCCTAATCTTTCTGTTCAAGCGCCATCTAC” was 0.999 RPM ratio (pull-down/input); that for “GATGATTGTTCTCCCAGCTGATGAATTACCTGGTTCGAGTAAACAAATTTTCCTAATCTTTCTGTTCAAGCGCCATCTAC” was 0.928 RPM ratio (pull-down/input).
For the sequence “GATGATTGTTCTCCCAGCTGATGAATTCCTTGGGTCGAGTAAACAAATTTTCCTAATCTTTCTGTTCAAGCGCCATCTAC”, the binding signal was 0.74 RPM ratio (pull-down/input).
The value for “GATGATTGTTCTCCCAGCTGATGAATTAGGTATGTCGAGTAAACAAATTTTCCTAATCTTTCTGTTCAAGCGCCATCTAC” was 0.967 RPM ratio (pull-down/input).
For the sequence “GATGATTGTTCTCCCAGCTGATGAATTCAGAAGATCGAGTAAACAAATTTTCCTAATCTTTCTGTTCAAGCGCCATCTAC”, the binding signal was 0.738 RPM ratio (pull-down/input).
The figure for “GATGATTGTTCTCCCAGCTGATGAATTGGTGTAGTCGAGTAAACAAATTTTCCTAATCTTTCTGTTCAAGCGCCATCTAC” is 1.1 RPM ratio (pull-down/input); for “GATGATTGTTCTCCCAGCTGATGAATTCATTCTCTCGAGTAAACAAATTTTCCTAATCTTTCTGTTCAAGCGCCATCTAC” it is 0.797 RPM ratio (pull-down/input); for “GATGATTGTTCTCCCAGCTGATGAATTCCAAGATTCGAGTAAACAAATTTTCCTAATCTTTCTGTTCAAGCGCCATCTAC” it is 0.954 RPM ratio (pull-down/input).
